Source: PubChem BioAssay AID1963576 (National Center for Advancing Translational Sciences (NCATS), 2024)
Hit rate of the full screen: of about 46,000 compounds, about 60 (0.1%) were called active. About 3% were inconclusive and are not listed. The call rests on the fitted dose curve; in most records, active means well fitted inhibition curve with a large enough effect; inconclusive means small, poorly fitted or top-dose-only effect; inactive means no such curve, though single readings can be large or run the other way. The list shows a part of the results.

assay: Primary qHTS assay for Inhibitors of ovarian cancer metastasis using an organotypic tumor microenvironment (TME) model.; further: nearly all actives have a fitted effect of over 65% in size;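 on activity change, negative = inhibition: plate controls were DMSO wells for no effect and tomatine positive control wells for full effect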; conditions: SKOV3ip1-GFP adhesion/invasion on 3D omental model, fluorescence; series mostly up to 45.8 µM; activity change, negative = inhibition: at the top concentration
Method in brief: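 Primary human omental fibroblast/mesothelial 3D culture pre-formed 48 h. SKOV3ip1-GFP cells added with compounds (0.36-46 umol/L), incubated 2 h RT/16 h 37 C, fixed; GFP cells quantified at 488/509 nm.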

Activity change, negative = inhibition, inactive:
CN(c1ccccc1)S(=O)(=O)c1nnc(NC(=O)c2cccs2)s1 -4.17%
Cc1cc2n(n1)CCCN2C(=O)Nc1ccc(C)c(Cl)c1 -8.05%
Cc1ccc(C)c(N2CCN(S(=O)(=O)c3ccc(F)c(C(=O)Nc4ccc(Cl)cc4Cl)c3)CC2)c1 0.775%
COc1ccc(OC)c(CCNC(=O)c2cc3cccc4c3n2CCS4)c1 -0.619%
CCc1ccc(NC(=O)Cn2nnc(C(=O)NCCc3ccccc3)c2N)cc1 6.98%
O=C(NCc1cccc(F)c1)C1CCN(c2nn3cc(-c4ccc(F)cc4)nc3s2)CC1 -1.09%
CCc1ccccc1N(C)C(=O)c1cc2c(Cl)nc3ccc(C)cc3c2s1 -2.55%
Cc1ccc2[nH]c3c(=O)n(CC(=O)NCCCN4CCN(c5ccc(F)cc5)CC4)ncc3c2c1 8.44%
COCCCNC(=O)C1CCN(C(=O)c2ccc(-n3ccc4ccccc43)s2)CC1 -8.27%
Cc1cccc(C)c1NC(=O)c1nc(SC(C)C)ncc1Cl 4.39%
O=C(Nc1ccc(O)c(-c2nc3ccccc3o2)c1)c1ccc(-c2cccc(Cl)c2)o1 9.19%
CC1CCN(S(=O)(=O)c2ccc3c(c2)oc(=O)n3CC(=O)N2CCCCC2)CC1 0.836%
Cc1ccccc1CNCCSc1nnnn1C 32.5%
COc1cc2c(N3CCN(C(=O)Nc4ccc(OC(C)C)cc4)CC3)ncnc2cc1OCCCN1CCCCC1 -9.88%
COc1cccc(CNC(=O)CSc2nnc(C)c3c(C)n(-c4ccccc4)nc23)c1 0.974%
Cc1ccccc1Nc1c(-c2ccc(O)cc2)nc2c(C)cccn12 3.42%
Cc1cc(O)c2c(c1)C(=O)c1cccc(O)c1C2=O -4.52%
CCOc1ccc(NC(=O)c2c(NC(=O)c3ccncc3)sc3c2CCC(C(C)(C)C)C3)cc1 (configuration not stated) 8.49%
Cc1cccc(OCC(=O)NCc2ccc3c(c2)CCN3C(=O)c2ccc(Cl)cc2)c1 0.0489%
O=C(c1cccn1-c1nnc(N2CCCC2)s1)N1CCN(c2ccc(F)cc2)CC1 -0.169%
COc1ccc(Cl)cc1S(=O)(=O)N1CCC(c2ccncc2)CC1 2.12%
COc1cccc(/C=C/c2nc3ccccc3c(=O)n2-c2ccc(C)c(C)c2)c1OC -11.2%
CC(=O)N1c2ccccc2CC1C(=O)N1CCN(c2cc(Cl)ccc2C)CC1 (configuration not stated) 0.0265%
Cc1cccc(CNC(=O)CN2CC(C)Sc3ccccc32)c1 (configuration not stated) -2.47%
CC(C(=O)O)c1ccc(-c2ccccc2)c(F)c1 (configuration not stated) -4.58%
CC(=O)Nc1ccc(NC(=O)CN2C(=O)CCc3cc(S(=O)(=O)N4CCCCC4)ccc32)cc1 3.28%
O=C(Cn1cc(SCc2ccc(Cl)cc2)c2ccccc21)N1CCCC1 -6.78%
COc1cccc(NC2=CC(c3ccc(C(C)C)cc3)N(c3cccc(OC)c3)C2=O)c1 (configuration not stated) 2.32%
CCc1ccccc1NC(=O)Nc1ccc2snnc2c1 8.72%
COc1cc(NC(=O)CCCc2nnc3n(C)c(=O)c4sccc4n23)cc(OC)c1OC 9.44%
Cc1cccc(CC(=O)N2CC(=O)Nc3ccc(F)cc3C2c2ccccc2)c1 (configuration not stated) -5.86%
Cc1ccc(CNC(=O)CSc2c(C(C)C)cnc3c2c(=O)n(C)c(=O)n3C)cc1 -5.43%
O=C(CSc1nc(Nc2ccc(F)c(F)c2)c2ccccc2n1)c1ccc(Cl)cc1 -4.11%
CCOc1ccccc1Nc1nc2c(S(=O)(=O)c3ccc(C)cc3)nnn2c2ccsc12 -5.19%
COc1ccc(-c2cccc(NS(=O)(=O)c3ccc(NC(C)=O)cc3)c2)nn1 1.43%
CC(C)(C)OC(=O)N1CCC(c2c(C(=O)NCCN3CCOCC3)cnn2-c2ccc(F)cc2F)CC1 24.6%
CCOc1cc(/C=C(\C#N)C(=O)Nc2ccc(OC)cc2)ccc1OCc1cc(=O)n2nc(CC)sc2n1 -4.31%
CC(=O)Nc1ccc(NC(=O)c2ncoc2-c2ccco2)cc1 -15%
Cc1ccc2nc(CSc3nnc(NC(=O)c4ccc(C(C)(C)C)cc4)s3)cc(=O)n2c1 2.66%
CCOC(=O)c1c(-c2ccccc2)csc1NC(=O)c1nc(SCC)ncc1Cl -10.8%
Cc1ccc(-c2nc3scc(CCNS(=O)(=O)c4ccc(Oc5ccccc5)cc4)n3n2)cc1 -15.3%
COc1cccc(/C=C(\C#N)C(=O)Nc2ccc(NC(C)=O)cc2)c1OC -2.17%
CCc1nc2sc3c(N4CCCCC4)ncnc3c2c2c1CCCC2 1.41%
CCC(C)[C@H](N)c1nnc(SCc2ccc(Cl)c(Cl)c2)o1 (some centres not stated) -7.13%

outcome, inactive:
N#Cc1ccccc1Cn1c(=O)n(-c2ccccc2)c(=O)c2c3c(sc21)CCC3
CCOc1ccccc1NC(=O)Cn1c(=O)n(CCCCC(=O)NCCCOC)c(=O)c2ccccc21
CCC(C(=O)Nc1ccc(F)cc1F)n1nc(-c2ccccc2)c2c(c1=O)CCCC2 (configuration not stated)
COc1ccc(NC(=O)CCS(=O)(=O)c2cc3c4c(c2)CCN4C(=O)CC3)cc1OC
COc1ccc(-c2nnc(SCC(=O)Nc3ccc(C)c(Cl)c3)nc2-c2ccc(OC)c(OC)c2)cc1OC
Cc1nc(N)c(S(=O)(=O)c2ccccc2)c(Nc2ccc(Br)cc2)n1
COc1ccc(NC(=O)c2ccco2)cc1NC(=O)COc1cc(C)ccc1C(C)C
O=C(Nc1ccc(F)cc1)Nc1nnc(SCC(=O)N2CCCCC2)s1
Cc1c(C(=O)N(Cc2cccc(Cl)c2)Cc2ccco2)oc2ccccc12
COc1ccc(C)cc1NS(=O)(=O)c1cc(Br)cc2c1N(C(C)=O)C(C)C2 (configuration not stated)
O=C(CSCc1ccc(F)cc1)NCc1ccc(F)cc1
CCc1ccc(NS(=O)(=O)c2ccc3[nH]c4c(c3c2)CCCCCC4)cc1
Cc1cccc(-n2ncc(C(=O)NCc3ccc4c(c3)OCO4)c2C2CCN(C(=O)OC(C)(C)C)CC2)c1
CCc1ccc(NC(=O)CN2C(=O)CC(c3ccccc3)Sc3ccccc32)cc1 (configuration not stated)
CCCCN(C)CCNC(=O)c1cc(-c2ccc(Cl)s2)nc2ccccc12
CCc1cccc(C)c1NC(=O)CN1C(=O)c2cccc3cccc1c23
COc1ccc(NC(=O)CSc2cn(CCNC(=O)c3ccc(OC)cc3)c3ccccc23)cc1
Cc1ccc(CN2C(=O)C3(c4ccccc42)N(c2ccc(C)c(Cl)c2)C(=O)CS3(=O)=O)cc1 (configuration not stated)
